# Data reported in the supplement of paper PMC10037445.
# Over roughly 2,900 compounds, “NF-kB SEAP reporter activity, fold change vs agonist alone” has its median near 0.99; the highest 2% begin near 2.6. Some of the results follow.
# Assays:
# RAW-Dual [1] = test: NF-kB SEAP reporter activity, fold change vs agonist alone; higher = enhanced NF-kB activity
# How it was run: (§1)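 Library stock was pin-tooled at 50 nL into 384-well plates of RAW-Dual macrophages (50,000 cells/well, DMEM), followed 1 h later by a PRR agonist, and the cells were kept at 37 °C, 5% CO2. Supernatant collected after 20 hours was read for IRF by QuantiLuc luminescence and for NF-κB by QuantiBlue absorbance at 620 nm. Reporter activity is fold change over agonist-alone wells, and a well counted as cytotoxic when its IncuCyte confluency was below 70% of agonist controls in both mask sets.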
# RAW-Dual [2] = test: NF-kB SEAP reporter activity, fold change vs agonist alone; cytotoxicity flag (confluency mask): not cytotoxic; higher = enhanced NF-kB activity
# How it was run: as §1
# RAW-Dual [3] = test: NF-kB SEAP reporter activity, fold change vs agonist alone; cytotoxicity flag (confluency mask): cytotoxic (confluency <70% of control); higher = enhanced NF-kB activity
# How it was run: as §1
# [4] = library stock concentration (final ~1000-fold dilution): 10 mM, cytotoxicity flag (confluency mask): not cytotoxic, agonist: Imiquimod (TLR7) […]
# [5] = library stock concentration (final ~1000-fold dilution): 10 mM, cytotoxicity flag (confluency mask): not cytotoxic, agonist: MPLA (TLR4) […]
# [6] = agonist: ODN 1826 (TLR9) 0.5 ug/mL
# [7] = agonist: Pam2CSK4 (TLR2/6) 0.1 ug/mL
# [8] = agonist: Pam3CSK4 (TLR2/1) 0.1 ug/mL
# [9] = library stock concentration (final ~1000-fold dilution): 10 mM, cytotoxicity flag (confluency mask): cytotoxic (confluency <70% of control), agonist: Imiquimod (TLR7) […]
# [10] = library stock concentration (final ~1000-fold dilution): 10 mM, cytotoxicity flag (confluency mask): cytotoxic (confluency <70% of control), agonist: MPLA (TLR4) […]
structure (smiles),measurement,setting,value
O=C(O)CCC(=O)Nc1ccc(Br)cn1,NF-kB SEAP reporter activity,RAW-Dual [1]; [4],0.981
same,NF-kB SEAP reporter activity,RAW-Dual [1]; [5],1.02
COc1ccc(C(=O)Nc2sc3c(c2C(N)=O)CCCC3)cc1OC (library stock concentration (final ~1000-fold dilution): 10 mM),NF-kB SEAP reporter activity,RAW-Dual [2]; agonist: LPS (TLR4) 0.1 ug/mL,1.16
same,NF-kB SEAP reporter activity,RAW-Dual [2]; [6],0.988
same,NF-kB SEAP reporter activity,RAW-Dual [2]; [7],0.923
same,NF-kB SEAP reporter activity,RAW-Dual [2]; [8],0.889
COc1ccc(C(=O)Nc2sc3c(c2C(N)=O)CCCC3)cc1OC,NF-kB SEAP reporter activity,RAW-Dual [1]; [4],0.874
same,NF-kB SEAP reporter activity,RAW-Dual [1]; [5],0.972
CC(O)C(=O)O.CC(O)C(=O)O.CN1CCN(c2ccc3nc(-c4c(N)c5c(F)cccc5[nH]c4=O)[nH]c3c2)CC1,NF-kB SEAP reporter activity,RAW-Dual [1]; [9],1.2
same,NF-kB SEAP reporter activity,RAW-Dual [1]; [10],0.674
CC(O)C(=O)O.CC(O)C(=O)O.CN1CCN(c2ccc3nc(-c4c(N)c5c(F)cccc5[nH]c4=O)[nH]c3c2)CC1 (library stock concentration (final ~1000-fold dilution): 10 mM),NF-kB SEAP reporter activity,RAW-Dual [3]; agonist: LPS (TLR4) 0.1 ug/mL,0.292
same,NF-kB SEAP reporter activity,RAW-Dual [3]; [6],0.23
same,NF-kB SEAP reporter activity,RAW-Dual [3]; [7],0.347
same,NF-kB SEAP reporter activity,RAW-Dual [3]; [8],0.26
CC(N)(Cc1ccc(O)c(O)c1)C(=O)O (stereo not given) (library stock concentration (final ~1000-fold dilution): 2 mM),NF-kB SEAP reporter activity,RAW-Dual [2]; agonist: LPS (TLR4) 0.1 ug/mL,1.26
same,NF-kB SEAP reporter activity,RAW-Dual [2]; [6],1.07
same,NF-kB SEAP reporter activity,RAW-Dual [2]; [7],1.08
same,NF-kB SEAP reporter activity,RAW-Dual [2]; [8],1.05
CC(N)(Cc1ccc(O)c(O)c1)C(=O)O (stereo not given),NF-kB SEAP reporter activity,"RAW-Dual [1]; library stock concentration (final ~1000-fold dilution): 2 mM, cytotoxicity flag (confluency mask): not cytotoxic, agonist: Imiquimod (TLR7) […]",0.9
same,NF-kB SEAP reporter activity,"RAW-Dual [1]; library stock concentration (final ~1000-fold dilution): 2 mM, cytotoxicity flag (confluency mask): not cytotoxic, agonist: MPLA (TLR4) […]",1.08
CC(=O)N1CCC(Nc2cc(C(=O)NCC(O)CN3CCc4ccccc4C3)ncn2)CC1 (stereo not given) (library stock concentration (final ~1000-fold dilution): 10 mM),NF-kB SEAP reporter activity,RAW-Dual [2]; agonist: LPS (TLR4) 0.1 ug/mL,1.08
same,NF-kB SEAP reporter activity,RAW-Dual [2]; [6],0.948
same,NF-kB SEAP reporter activity,RAW-Dual [2]; [7],1.13
same,NF-kB SEAP reporter activity,RAW-Dual [2]; [8],1.17
CC(=O)N1CCC(Nc2cc(C(=O)NCC(O)CN3CCc4ccccc4C3)ncn2)CC1 (stereo not given),NF-kB SEAP reporter activity,RAW-Dual [1]; [4],0.92
same,NF-kB SEAP reporter activity,RAW-Dual [1]; [5],1.03
CC(=O)NO,NF-kB SEAP reporter activity,RAW-Dual [1]; [4],0.966
same,NF-kB SEAP reporter activity,RAW-Dual [1]; [5],1.01
CC(=O)NO (library stock concentration (final ~1000-fold dilution): 10 mM),NF-kB SEAP reporter activity,RAW-Dual [2]; agonist: LPS (TLR4) 0.1 ug/mL,0.973
same,NF-kB SEAP reporter activity,RAW-Dual [2]; [6],1.02
same,NF-kB SEAP reporter activity,RAW-Dual [2]; [7],0.894
same,NF-kB SEAP reporter activity,RAW-Dual [2]; [8],1.07
Cc1nc(Nc2ncc(C(=O)Nc3cc(NC(=O)c4cccc(C(F)(F)F)c4)ccc3C)s2)cc(N2CCN(CCO)CC2)n1,NF-kB SEAP reporter activity,RAW-Dual [1]; [4],1.06
same,NF-kB SEAP reporter activity,RAW-Dual [1]; [5],1.08
Cc1nc(Nc2ncc(C(=O)Nc3cc(NC(=O)c4cccc(C(F)(F)F)c4)ccc3C)s2)cc(N2CCN(CCO)CC2)n1 (library stock concentration (final ~1000-fold dilution): 10 mM),NF-kB SEAP reporter activity,RAW-Dual [2]; agonist: LPS (TLR4) 0.1 ug/mL,0.472
same,NF-kB SEAP reporter activity,RAW-Dual [2]; [6],0.971
same,NF-kB SEAP reporter activity,RAW-Dual [2]; [7],0.285
same,NF-kB SEAP reporter activity,RAW-Dual [2]; [8],0.381
Cc1cc(C(=O)NNCc2ccccc2)no1 (library stock concentration (final ~1000-fold dilution): 10 mM),NF-kB SEAP reporter activity,RAW-Dual [2]; agonist: LPS (TLR4) 0.1 ug/mL,1.21
same,NF-kB SEAP reporter activity,RAW-Dual [2]; [6],0.961
same,NF-kB SEAP reporter activity,RAW-Dual [2]; [7],1.02
same,NF-kB SEAP reporter activity,RAW-Dual [2]; [8],1.34
Cc1cc(C(=O)NNCc2ccccc2)no1,NF-kB SEAP reporter activity,RAW-Dual [1]; [4],0.939
same,NF-kB SEAP reporter activity,RAW-Dual [1]; [5],0.993
O=c1cc(-c2ccc(O)c(O)c2)oc2cc(O)c(C3OC(CO)C(O)C(O)C3O)c(O)c12 (stereo not given) (library stock concentration (final ~1000-fold dilution): 10 mM),NF-kB SEAP reporter activity,RAW-Dual [2]; agonist: LPS (TLR4) 0.1 ug/mL,0.836
same,NF-kB SEAP reporter activity,RAW-Dual [2]; [6],0.897
same,NF-kB SEAP reporter activity,RAW-Dual [2]; [7],1.05
same,NF-kB SEAP reporter activity,RAW-Dual [2]; [8],1.07
O=c1cc(-c2ccc(O)c(O)c2)oc2cc(O)c(C3OC(CO)C(O)C(O)C3O)c(O)c12 (stereo not given),NF-kB SEAP reporter activity,RAW-Dual [1]; [4],0.899
same,NF-kB SEAP reporter activity,RAW-Dual [1]; [5],1
Cc1cccc(/C=N/Nc2cc(N3CCOCC3)nc(OCCc3ccccn3)n2)c1,NF-kB SEAP reporter activity,RAW-Dual [1]; [4],2.47
same,NF-kB SEAP reporter activity,RAW-Dual [1]; [5],2.3
Cc1cccc(/C=N/Nc2cc(N3CCOCC3)nc(OCCc3ccccn3)n2)c1 (library stock concentration (final ~1000-fold dilution): 10 mM),NF-kB SEAP reporter activity,RAW-Dual [2]; agonist: LPS (TLR4) 0.1 ug/mL,2.52
same,NF-kB SEAP reporter activity,RAW-Dual [2]; [6],1.2
same,NF-kB SEAP reporter activity,RAW-Dual [2]; [7],1.05
same,NF-kB SEAP reporter activity,RAW-Dual [2]; [8],1.54
Cn1c(=O)c2c(ncn2CC(=O)O)n(C)c1=O,NF-kB SEAP reporter activity,RAW-Dual [1]; [4],0.897
same,NF-kB SEAP reporter activity,RAW-Dual [1]; [5],1.05
Cn1c(=O)c2c(ncn2CC(=O)O)n(C)c1=O (library stock concentration (final ~1000-fold dilution): 10 mM),NF-kB SEAP reporter activity,RAW-Dual [2]; agonist: LPS (TLR4) 0.1 ug/mL,0.931
same,NF-kB SEAP reporter activity,RAW-Dual [2]; [6],0.916
same,NF-kB SEAP reporter activity,RAW-Dual [2]; [7],1.11
same,NF-kB SEAP reporter activity,RAW-Dual [2]; [8],1.03
CC1CC(=O)c2c(ccc3c2C(=O)c2cccc(O)c2C3=O)C1 (stereo not given) (library stock concentration (final ~1000-fold dilution): 10 mM),NF-kB SEAP reporter activity,RAW-Dual [2]; agonist: LPS (TLR4) 0.1 ug/mL,1.64
same,NF-kB SEAP reporter activity,RAW-Dual [2]; [6],1.14
same,NF-kB SEAP reporter activity,RAW-Dual [2]; [7],1.09
same,NF-kB SEAP reporter activity,RAW-Dual [2]; [8],0.991
CC1CC(=O)c2c(ccc3c2C(=O)c2cccc(O)c2C3=O)C1 (stereo not given),NF-kB SEAP reporter activity,RAW-Dual [1]; [4],1.02
same,NF-kB SEAP reporter activity,RAW-Dual [1]; [5],1.26
CS(=O)(=O)c1cccc(CNc2nc(Nc3ccc4c(c3)CCC(=O)N4)ncc2C(F)(F)F)c1 (library stock concentration (final ~1000-fold dilution): 10 mM),NF-kB SEAP reporter activity,RAW-Dual [2]; agonist: LPS (TLR4) 0.1 ug/mL,0.902
same,NF-kB SEAP reporter activity,RAW-Dual [2]; [6],1.75
same,NF-kB SEAP reporter activity,RAW-Dual [2]; [7],0.592
same,NF-kB SEAP reporter activity,RAW-Dual [2]; [8],0.821
CS(=O)(=O)c1cccc(CNc2nc(Nc3ccc4c(c3)CCC(=O)N4)ncc2C(F)(F)F)c1,NF-kB SEAP reporter activity,RAW-Dual [1]; [4],1.72
same,NF-kB SEAP reporter activity,RAW-Dual [1]; [5],1.35
CC(C)(C)n1nc(-c2ccc(Cl)cc2)c2c(N)ncnc21,NF-kB SEAP reporter activity,RAW-Dual [1]; [9],1.1
same,NF-kB SEAP reporter activity,RAW-Dual [1]; [10],0.972
CC(C)(C)n1nc(-c2ccc(Cl)cc2)c2c(N)ncnc21 (library stock concentration (final ~1000-fold dilution): 10 mM),NF-kB SEAP reporter activity,RAW-Dual [3]; agonist: LPS (TLR4) 0.1 ug/mL,0.837
same,NF-kB SEAP reporter activity,RAW-Dual [3]; [6],1.26
same,NF-kB SEAP reporter activity,RAW-Dual [3]; [7],0.621
same,NF-kB SEAP reporter activity,RAW-Dual [3]; [8],0.59
